Measurements reported in paper PMC10350115.
These are yes or no findings as the source states them, for the method shown. Binding seen in cells or lysates may run through a third protein. Some binding calls cover weakened binding; strength is not graded here. Where a sequence is shown, tags or fusion partners need not be part of it.

Amino acid sequences for entries named in this document (tags omitted). Residues count along the entry.
UniProt Q9CXZ1, residues 43-175: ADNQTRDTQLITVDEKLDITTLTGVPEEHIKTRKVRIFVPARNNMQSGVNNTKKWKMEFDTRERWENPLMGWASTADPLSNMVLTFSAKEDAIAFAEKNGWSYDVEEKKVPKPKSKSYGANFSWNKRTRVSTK

B1: STOML2-HA ΔCTD (Δ213–353) (domain or fragment, UniProt Q99JB2 29-212)
chain: SSGLPRNTVILFVPQQEAWVVERMGRFHRILEPGLNVLIPVLDRIRYVQSLKEIVINVPEQSAVTLDNVTLQIDGVLYLRIMDPYKASYGVEDPEYAVTQLAQTTMRSELGKLSLDKVFRERESLNANIVDAINQAADCWGIRCLRYEIKDIHVPPRVKESMQMQVEAERRKRATVLESEGTRE
B2: STOML2-HA fusion protein, full length wild type (protein, UniProt Q99JB2 29-353)
chain: SSGLPRNTVILFVPQQEAWVVERMGRFHRILEPGLNVLIPVLDRIRYVQSLKEIVINVPEQSAVTLDNVTLQIDGVLYLRIMDPYKASYGVEDPEYAVTQLAQTTMRSELGKLSLDKVFRERESLNANIVDAINQAADCWGIRCLRYEIKDIHVPPRVKESMQMQVEAERRKRATVLESEGTRESAINVAEGKKQAQILASEAEKAEQINQAAGEASAVLAKAKAKAEAIRILAGALTQHNGDAAASLTVAEQYVSAFSKLAKDSNTVLLPSNPSDVTSMVAQAMGVYGALTKAPVPGAQNSSQSRRDVQATDTSIEELGRVKLS
B3: STOML2-HA ΔHP (Δ29–78) (protein, UniProt Q99JB2)
chain: LKEIVINVPEQSAVTLDNVTLQIDGVLYLRIMDPYKASYGVEDPEYAVTQLAQTTMRSELGKLSLDKVFRERESLNANIVDAINQAADCWGIRCLRYEIKDIHVPPRVKESMQMQVEAERRKRATVLESEGTRESAINVAEGKKQAQILASEAEKAEQINQAAGEASAVLAKAKAKAEAIRILAGALTQHNGDAAASLTVAEQYVSAFSKLAKDSNTVLLPSNPSDVTSMVAQAMGVYGALTKAPVPGAQNSSQSRRDVQATDTSIEELGRVKLS
B4: STOML2-HA Δ110–168 (α1–4 helices mutant) (protein, UniProt Q99JB2)
chain: SSGLPRNTVILFVPQQEAWVVERMGRFHRILEPGLNVLIPVLDRIRYVQSLKEIVINVPEQSAVTLDNVTLQIDGVLYLRIGIRCLRYEIKDIHVPPRVKESMQMQVEAERRKRATVLESEGTRESAINVAEGKKQAQILASEAEKAEQINQAAGEASAVLAKAKAKAEAIRILAGALTQHNGDAAASLTVAEQYVSAFSKLAKDSNTVLLPSNPSDVTSMVAQAMGVYGALTKAPVPGAQNSSQSRRDVQATDTSIEELGRVKLS
B5: STOML2-HA ΔN-term1 (Δ59–212) (protein, UniProt Q99JB2)
chain: SSGLPRNTVILFVPQQEAWVVERMGRFHRISAINVAEGKKQAQILASEAEKAEQINQAAGEASAVLAKAKAKAEAIRILAGALTQHNGDAAASLTVAEQYVSAFSKLAKDSNTVLLPSNPSDVTSMVAQAMGVYGALTKAPVPGAQNSSQSRRDVQATDTSIEELGRVKLS
B6: STOML2-HA ΔN-term2, deletion mutant of HP and STOM (Δ29–212) (protein, UniProt Q99JB2)
chain: SAINVAEGKKQAQILASEAEKAEQINQAAGEASAVLAKAKAKAEAIRILAGALTQHNGDAAASLTVAEQYVSAFSKLAKDSNTVLLPSNPSDVTSMVAQAMGVYGALTKAPVPGAQNSSQSRRDVQATDTSIEELGRVKLS
B7: STOML2-HA ΔSTOM (Δ79–212) (protein, UniProt Q99JB2)
chain: SSGLPRNTVILFVPQQEAWVVERMGRFHRILEPGLNVLIPVLDRIRYVQSSAINVAEGKKQAQILASEAEKAEQINQAAGEASAVLAKAKAKAEAIRILAGALTQHNGDAAASLTVAEQYVSAFSKLAKDSNTVLLPSNPSDVTSMVAQAMGVYGALTKAPVPGAQNSSQSRRDVQATDTSIEELGRVKLS
B8: STOML2-HA Δ70–109 (β1–3 sheets mutant) (protein, UniProt Q99JB2)
chain: SSGLPRNTVILFVPQQEAWVVERMGRFHRILEPGLNVLIPVMDPYKASYGVEDPEYAVTQLAQTTMRSELGKLSLDKVFRERESLNANIVDAINQAADCWGIRCLRYEIKDIHVPPRVKESMQMQVEAERRKRATVLESEGTRESAINVAEGKKQAQILASEAEKAEQINQAAGEASAVLAKAKAKAEAIRILAGALTQHNGDAAASLTVAEQYVSAFSKLAKDSNTVLLPSNPSDVTSMVAQAMGVYGALTKAPVPGAQNSSQSRRDVQATDTSIEELGRVKLS
B9: STOML2-HA Δ169–212 (β4 sheet and α5 helix mutant) (protein, UniProt Q99JB2)
chain: SSGLPRNTVILFVPQQEAWVVERMGRFHRILEPGLNVLIPVLDRIRYVQSLKEIVINVPEQSAVTLDNVTLQIDGVLYLRIMDPYKASYGVEDPEYAVTQLAQTTMRSELGKLSLDKVFRERESLNANIVDAINQAADCWSAINVAEGKKQAQILASEAEKAEQINQAAGEASAVLAKAKAKAEAIRILAGALTQHNGDAAASLTVAEQYVSAFSKLAKDSNTVLLPSNPSDVTSMVAQAMGVYGALTKAPVPGAQNSSQSRRDVQATDTSIEELGRVKLS

Experiments:
NDUFS4-FLAG (mouse) = NDUFS4-FLAG (mouse) (UniProt Q9CXZ1); test: co-IP; HEK293T transfected; cells cross-linked with 1 mM dithiobis(succinimidyl propionate); RIPA then NETN buffer; Anti-FLAG M2 magnetic beads overnight, eluted with 3X FLAG peptide; IgG as control
[1] = target: GST-NDUFS4 fusion protein (mouse) (UniProt Q9CXZ1); test: pull-down; 2 ug GST or GST-NDUFS4 immobilised on Glutathione Sepharose 4B beads, incubated 3 hrs at 4°C with cleared HEK293T lysate (TNTE buffer, 150 mM NaCl, 1.0% Nonidet P-40) with STOML2-HA constructs; immunoblot; only the target purified

Binder | binding (NDUFS4-FLAG (mouse)) | binding [1]
B1 | binds | binds
B2 | – | binds
B3 | – | binds
B4 | – | binds
B5 | no binding | –
B6 | no binding | –
B7 | – | no binding
B8 | – | no binding
B9 | – | no binding
